The values that follow come from publication PMC12136788.

The list shows a part of the results.

B1: chr2:44571066:44571067:-_ENSG00000138078_ENST00000409411|hu_hu|FALSE|FALSE (ssRNA)
RNA: GGGAGUUCUACAGUCCGACGAUCAACUCUGAUACAAUCAAUGAAGGGCUGGUCUAACUUAAGUUCCUCCAAAUUGAAUAAAACUUCAUAAUUAUCAUUGUCUGCUUCUUCAUCUUUGGAACGAACCAAGCAACAACCUUCUUGCAACAGAGGAUUGAGCAUCA
B2: chr6:114281168:114281169:-_ENSG00000196591_ENST00000368632|hu_hu|hu_hu_hu_mus_True|18_38 (ssRNA)
RNA: GGGAGUUCUACAGUCCGACGAUCUUCCAUUUUUCGGUAUAAACCAUAAUUUAGCAGCAAGUUAUGAGUCAUCCGGAUUCUAUGAGGCUUCAUGGGAUGACCCUGUCCAUAAUAAUAAUUUCCAAUAUCACCAUCAUAGUAGUACAACAGAGGAUUGAGCAUCA
B3: chr3:47755950:47755951:-_ENSG00000173473_ENST00000254480|hu_mus|FALSE|FALSE (ssRNA)
RNA: GGGAGUUCUACAGUCCGACGAUCAACCUUCCAGGGCUUUUCUGGGAUUGGUGCAUCUUCAAUUUCAGCAUCAACAUCAUUACUGUGGACCCAAGUGUCAUAGCUGUCUGGGUAGAAACCCCAGUGCACCAGCACCUGCUUGUCCAACAGAGGAUUGAGCAUCA
B4: chr14:66974463:66974464:+_ENSMUSG00000022044_ENSMUST00000074523|mus_hu|mus_mus_mus_hu_False|1_18 (ssRNA)
RNA: GGGAGUUCUACAGUCCGACGAUCUUGUAGGACGACUUAUUCAGGGGAUCGGCCAGGAAGCAGGAGCAGAACAAGGACACCAGCGGGAGCUCCUUCAUCUUCUCUUUGUAGGCAGCAAGAGUCAUGUUUCUGGGAUCCUGGUGGCAACAGAGGAUUGAGCAUCA
B5: chr17:60770872:60770873:+_ENSG00000011028_ENST00000303375|hu_hu|motif|central (ssRNA)
RNA: GGGAGUUCUACAGUCCGACGAUCUUGCUUUUCUUUUUUCCUUUUUUUUUAAAAACAAUAAUGGCACAUUUAAAAAAUCAACGGCAGAGAAAGGGCCAUGUCUUCGAGUCCAUGUUCACAUUGUCCCACGCUGUCGCACCAGGACAACAGAGGAUUGAGCAUCA
B6: chr18:9257185:9257186:+_ENSG00000101745_ENST00000400020|hu_mus|motif|central (ssRNA)
RNA: GGGAGUUCUACAGUCCGACGAUCUUGGAAAUGUUUUAUGGGCUCACAGAUAACUGAGGGCAUACUGCAUCUUCUAAUUUCGGCAGCAGGUCUUACCUCAUUAGUAAUUAGUUUAACAUCUUCCACAGAAGAUGACCUGAGAUGCAACAGAGGAUUGAGCAUCA
B7: chrX:71549762:71549763:+_ENSMUSG00000019087_ENSMUST00000019231|mus_mus|mus_mus_mus_hu_False|38_38 (ssRNA)
RNA: GGGAGUUCUACAGUCCGACGAUCAAACCCGUGUACUUCUUAUUGUUAGCACAACAUCACCAGAAAACGAUAACGACAGCCAAGCAGGACAGACAGUCAAGUAGUCUUUCCACACUCCCAAACUCAGGGAGCCCUAUAACCUUACAACAGAGGAUUGAGCAUCA
B8: 101904251_101904371_108_5pUTR_ENSMUSG00000058655_ENSMUST00000169681|mouse|control|control (ssRNA)
RNA: GGGAGUUCUACAGUCCGACGAUCGGAGAGAGAACGCAAAGGACCCGGAUGAGGCAGUCACGUGAUUAUAGCGGGCGCGACGGGCUUGGAGACGUGAAACCAGGAGGGGGCGGGGAGCCGAGGACGGAGGCAGAAGGCGGGGCGCAACAGAGGAUUGAGCAUCA
B9: chr5:67718940:67718941:+_ENSMUSG00000029221_ENSMUST00000113676|mus_hu|motif|central (ssRNA)
RNA: GGGAGUUCUACAGUCCGACGAUCGUAAAAGACUCAGUAUCUUCAUGGGGACUUCGUCGUCUGAUUUUUCGAAGUUGUUCGGGAUCACUGGAUUUGAGGCAGAACUCAUUUAUCGCUCUGACUCCAGUGAUGAAAUUAUUCUGACAACAGAGGAUUGAGCAUCA
B10: chr13:55803806:55803807:+_ENSMUSG00000045767_ENSMUST00000057844|mus_mus|FALSE|FALSE (ssRNA)
RNA: GGGAGUUCUACAGUCCGACGAUCUAUUUGUUUUGAUAACAAUAAUAAAUAAGGCAUGUUAAAAUAUCCUUUUAAGAAAAAAGUAAAACAAACUUACUUGAAUAGCACAUCAUUUUCUGACAAAGUUUUAAUAUAGAAUAGUGACAACAGAGGAUUGAGCAUCA
B11: chr1:150795811:150795812:-_ENSG00000143437_ENST00000358595|hu_mus|FALSE|FALSE (ssRNA)
RNA: GGGAGUUCUACAGUCCGACGAUCCCAUUCUCGGGUCUUAGAUCGGAAUCGGAACAUGACGGACAGCACCUGACCUUUUAAUUUCACCACCUGCUGAAAGCUGUCUCUUAGAAGUUGUUGGUCUUCAGGAUGACAAAAUUCUACCAACAGAGGAUUGAGCAUCA
B12: chr8:13019523:13019524:+_ENSMUSG00000031442_ENSMUST00000123811|mus_hu|FALSE|FALSE (ssRNA)
RNA: GGGAGUUCUACAGUCCGACGAUCGUGAAGAAUUGAGGCCAAAGUACCACAAAAAAUGGCCACGGGAUUGAUCCCUGCUUGAAAAAAUCCUAAAACUUGUAAAAGCUAAAGAGACCCCGUGCCCCGCUCUCCUCAGGCCGUUGGCAACAGAGGAUUGAGCAUCA
B13: chr2:216981417:216981418:+_ENSG00000079246_ENST00000392132|hu_hu|motif|central (ssRNA)
RNA: GGGAGUUCUACAGUCCGACGAUCCUGAUACUGAUCCCCACCAGAAAGGGGAUUGUCAGUGCCAUCUGUACCAAACAGGACGGAAGCAAUCUCAUCCUUGUUCUCAGCAAACACCUGUCGCUGUACAAACAUGGUUAUCACCUUCAACAGAGGAUUGAGCAUCA
B14: chr11:51804959:51804960:-_ENSMUSG00000020390_ENSMUST00000020657|perfect_dup|motif|central (ssRNA)
RNA: GGGAGUUCUACAGUCCGACGAUCCAUUUUGGAUAAAAACCUAACGGUUGGUGGUUUAUUUGGAUAUUCUUCAGAAAAUUCGGUUACGGGUUUAAAAGUACCAUCUUCAAAGGGUGUCCCUUCUGGUCCAAAUAUAACUGCAUUCAACAGAGGAUUGAGCAUCA

The target of the assay is T1, UNK ZnF1-3 (human, UniProt Q9C0B0 31-174).
T1 sequence: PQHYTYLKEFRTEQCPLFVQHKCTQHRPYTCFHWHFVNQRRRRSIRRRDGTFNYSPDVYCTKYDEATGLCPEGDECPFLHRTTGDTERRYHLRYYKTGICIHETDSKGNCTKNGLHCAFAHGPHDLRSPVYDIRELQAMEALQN
As to the kind of experiment: nsRBNS (natural sequence RNA bind-n-seq); RBNS binding buffer (assumed for nsRBNS): 25 mM Tris pH 7.5, 150 mM KCl, 3 mM MgCl2, 0.01% Triton X-100, 500 ug/ml BSA, 20 U/ml SUPERase-In, 4 C; UNK is unkempt and MSI1 is Musashi-1; names of the RNAs are library labels; protein concentration not given here; high values mean tight binding.
As to B1, the binding signal amounted to 0.693 enrichment R.
In the case of B2, the binding signal came out at 0.68 enrichment R.
Molecule B3 yielded a binding signal of 0.983 enrichment R.
B4 had a binding signal of 1.95 enrichment R.
The molecule B5 gave a binding signal of 0.902 enrichment R.
In turn, B6 yielded a binding signal of 0.983 enrichment R.
B7 returned a binding signal of 1.15 enrichment R.
The same measure for B8: 3.03 enrichment R; for B9: 0.452 enrichment R; for B10: 2.5 enrichment R.
The same measure for B11: 1.06 enrichment R.
Molecule B12 showed a binding signal of 1.46 enrichment R.
For the molecule B13, the binding signal was found to be 0.656 enrichment R.
The same measure for B14: 0.829 enrichment R.
